Results reported in the supplement of paper PMC12217912.
The other results are listed elsewhere or left out. The full chains were built here from the parent and the listed change. Inactive controls read about 0.05.

B1: TEV protease; numbered along this chain (parent)
chain: MGESLFKGPRDYNPISSSICHLTNESDGHTTSLYGIGFGPFIITNKHLFRRNNGTLVVQSLHGVFKVKDTTTLQQHLVDGRDMIIIRMPKDFPPFPQKLKFREPQREERICLVTTNFQTKSMSSMVSDTSCTFPSGDGIFWKHWIQTKDGQCGSPLVSTRDGFIVGIHSASNFTNTNNYFTSVPKNFMELLTNQEAQQWVSGWRLNADSVLWGGHKVFMVKPEEPFQPVKEATQL

Variants of: B1
Experiment: raw area under fraction-flipped curve 0-4 h after induction (AUC4h, not background-subtracted), DNA-recorder readout of cleavage of the substrate (dimensionless); higher = more cleavage of the substrate by the protease variant
Settings: temperature: 34 °C; time window: 0-4 h after rhamnose induction
Method: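 In vivo DNA recorder in E. coli TOP10(DE3) ΔrhaA at 34 °C. Each TEVp single-site mutant (parent TEVp 0) is paired with a single-site variant of the 7-mer TEVs (canonical ENLYFQ|S). The substrate sits between flexible linkers in a Bxb1-sfGFP-TEVs-SsrA fusion, so cleavage stabilises Bxb1 and speeds flipping of a recombination array, read by NGS. The value is the raw area under the fraction-flipped curve over 0-4 h after rhamnose induction (AUC4h), with ≥20 reads per time point. It is not background-subtracted; inactive controls average about 0.047.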
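Note: Bxb1 expression induced with 0.2% (w/v) L-rhamnose at OD600 near 0.5, cultures sampled hourly, flipped fraction per protease–substrate barcode pair counted by paired-end Illumina sequencing.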

| Variant | area with substrate ENLYFQA | area with substrate ENLYFQC | area with substrate ENLYFQD | area with substrate ENLYFQG | area with substrate ENLYFQH | area with substrate ENLYFQI | area with substrate ENLYFQK | area with substrate ENLYFQL | area with substrate ENLYFQM | area with substrate ENLYFQR | area with substrate ENLYFQS | area with substrate ENLYFQV | area with substrate ENLYFQW | area with substrate ENLYFQY | area with substrate ENLYFQF | area with substrate ENLYFQQ | area with substrate ENLYFQT | area with substrate ENLYFQE | area with substrate ENLYFQN | area with substrate ENLYFQP |
| --- | --- | --- | --- | --- | --- | --- | --- | --- | --- | --- | --- | --- | --- | --- | --- | --- | --- | --- | --- | --- |
| K142E | 0.0798 | 0.0859 | 0.0652 | 0.0823 | 0.079 | 0.0577 | 0.0655 | 0.0541 | 0.0656 | 0.0532 | 0.0868 | 0.0633 | 0.063 | 0.0636 |  |  |  |  |  |  |
| K142F | 0.0918 | 0.105 | 0.0875 | 0.0679 | 0.0822 | 0.0677 | 0.073 | 0.0605 |  | 0.0639 | 0.091 | 0.0625 | 0.066 |  | 0.0651 | 0.0568 | 0.0672 |  |  |  |
| K142T | 0.0921 | 0.0921 |  | 0.0537 |  | 0.08 | 0.0464 | 0.0838 | 0.0821 |  | 0.0909 |  | 0.0611 |  | 0.0942 |  | 0.0675 | 0.0575 | 0.0727 |  |
| H143A | 0.0942 | 0.105 | 0.064 | 0.0665 | 0.0959 |  | 0.049 | 0.0602 | 0.0701 | 0.0542 | 0.0949 |  | 0.0511 | 0.0625 | 0.0627 | 0.0619 | 0.0479 | 0.0652 | 0.0786 | 0.0523 |
| H143P | 0.0919 | 0.0573 | 0.0632 | 0.0558 | 0.0537 | 0.0505 | 0.0621 | 0.0515 |  | 0.0616 | 0.0555 | 0.0499 | 0.0513 | 0.0527 |  |  | 0.0625 |  | 0.0492 | 0.0572 |
| I145D | 0.0399 | 0.0732 | 0.0643 | 0.0665 |  | 0.045 | 0.0556 | 0.0609 | 0.0686 | 0.0582 | 0.0568 |  | 0.0596 | 0.0585 |  |  | 0.0613 |  |  | 0.0798 |
| Q146R | 0.1 |  |  | 0.119 |  | 0.0656 |  | 0.0665 | 0.0776 | 0.0674 | 0.108 | 0.0612 |  | 0.0747 | 0.0751 | 0.0686 | 0.0576 |  | 0.0716 |  |
| T147N | 0.0662 | 0.0741 | 0.0447 | 0.0659 | 0.0693 | 0.0556 | 0.0583 | 0.0527 | 0.0596 |  | 0.0655 | 0.0622 | 0.0466 |  |  | 0.0509 | 0.0486 |  | 0.0599 | 0.0576 |
| K148G | 0.0841 | 0.094 | 0.0679 | 0.0619 | 0.0782 | 0.0605 | 0.0639 | 0.0605 | 0.0744 | 0.0596 | 0.0862 | 0.0572 | 0.0584 | 0.0547 | 0.0576 | 0.059 | 0.0557 |  | 0.0762 | 0.0682 |
| G150K | 0.0474 | 0.0561 | 0.0529 |  |  | 0.0625 | 0.0578 | 0.0519 | 0.0659 | 0.0621 | 0.0606 |  | 0.0544 |  |  | 0.0779 |  |  | 0.0572 |  |
| G150R | 0.0643 | 0.048 |  | 0.0654 | 0.059 | 0.0618 | 0.0554 | 0.0582 | 0.0579 | 0.0578 | 0.0583 | 0.049 | 0.0613 | 0.0542 | 0.056 | 0.0568 | 0.0603 |  | 0.0685 | 0.0512 |
| C152S | 0.0787 | 0.097 |  | 0.0547 |  |  | 0.0586 | 0.0531 | 0.0569 | 0.0546 | 0.0763 | 0.0659 | 0.104 |  |  |  | 0.0485 | 0.0644 | 0.0621 | 0.0574 |
| P155A | 0.108 | 0.11 | 0.0781 | 0.113 |  | 0.0628 |  | 0.066 | 0.0689 | 0.0508 | 0.101 | 0.0559 | 0.0534 |  |  |  | 0.0683 | 0.0613 | 0.0752 |  |
| P155L | 0.0509 | 0.0635 |  | 0.066 | 0.0434 |  | 0.0532 | 0.0502 | 0.0494 | 0.0588 | 0.0586 | 0.0672 | 0.0535 |  | 0.0518 | 0.0693 | 0.0538 | 0.0515 | 0.0445 | 0.0777 |
| P155S | 0.0355 |  | 0.0852 | 0.0576 | 0.0543 | 0.0521 | 0.0689 | 0.0514 | 0.0479 | 0.0489 | 0.0646 | 0.0636 |  | 0.0526 | 0.0506 |  |  |  |  | 0.0504 |
| P155W | 0.0522 | 0.0533 |  |  | 0.0487 | 0.0393 | 0.0466 | 0.0413 | 0.0507 | 0.0505 | 0.0535 | 0.0692 | 0.0623 | 0.0548 |  |  | 0.0492 | 0.0733 | 0.0777 |  |
| L156W | 0.062 | 0.0627 | 0.0654 | 0.0617 | 0.059 | 0.0596 | 0.0601 | 0.0567 | 0.0586 | 0.0542 | 0.0599 | 0.058 | 0.0551 | 0.0595 | 0.0424 | 0.0448 | 0.0587 | 0.0568 | 0.0524 | 0.0701 |
| D161C | 0.1 |  |  |  | 0.0627 |  | 0.0647 | 0.0558 | 0.0602 | 0.0656 | 0.0758 | 0.0398 | 0.0538 | 0.0671 | 0.0787 | 0.0331 | 0.0789 | 0.054 | 0.0619 |  |
| D161F | 0.0587 | 0.0416 | 0.0377 |  |  |  | 0.05 | 0.0418 | 0.0623 |  | 0.0582 |  | 0.0516 | 0.0611 |  |  |  |  |  |  |
| D161K | 0.0558 | 0.0635 |  | 0.0566 | 0.0638 | 0.0523 | 0.0643 | 0.0536 | 0.0546 | 0.0575 | 0.0605 | 0.0473 | 0.0418 | 0.066 | 0.0467 |  | 0.0619 |  | 0.0487 |  |
| G162M | 0.0973 | 0.0971 | 0.0628 |  |  | 0.0452 |  | 0.0606 | 0.0678 | 0.0575 | 0.0964 |  | 0.0638 |  | 0.0422 | 0.0707 | 0.0575 |  |  | 0.0468 |
| F163R | 0.116 | 0.118 | 0.0722 |  | 0.0705 | 0.0581 | 0.0427 | 0.0576 |  | 0.0678 | 0.109 |  | 0.0715 |  |  | 0.0827 | 0.069 |  | 0.0979 | 0.0584 |
| I164C | 0.0974 | 0.108 | 0.0752 | 0.089 | 0.0832 |  | 0.0617 | 0.0634 | 0.0902 | 0.0582 | 0.0918 | 0.0602 | 0.0859 | 0.0692 | 0.0752 |  | 0.0713 |  | 0.0801 | 0.0664 |
